# Some of the results follow.
# B1: Gal 1 (Mus musculus), P16045 (protein)
# chain: MACGLVASNLNLKPGECLKVRGEVASDAKSFVLNLGKDSNNLCLHFNPRFNAHGDANTIVCNTKEDGTWGTEHREPAFPFQPGSITEVCITFDQADLTIKLPDGHEFKFPNRLNMEAINYMAADGDFKIKCVAFE
# Columns and labels:
# Experiment in all cases: glycan array binding signal (z-score within array); higher = stronger binding
# Conditions in all cases: glycan notation: IUPAC condensed, linker removed
# GlcNAc(b1-3)Fuc = biological target: GlcNAc(b1-3)Fuc
# How it was run: (§1)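 The binding signal is a Z-score computed within each array and averaged over linkers. Arrays of the same protein sequence at different concentrations or buffers were also averaged together. Data originate from 3228 arrays in the Consortium for Functional Glycomics database, kept only where the protein sequence was available.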
# GlcNAc(b1-3)Gal = biological target: GlcNAc(b1-3)Gal
# How it was run: as §1
# [1] = biological target: GlcNAc(b1-3)Gal(b1-3)GalNAc
# How it was run: as §1
# GlcNAc(b1-3)Gal(b1-4)Glc = biological target: GlcNAc(b1-3)Gal(b1-4)Glc
# How it was run: as §1
# [2] = biological target: GlcNAc(b1-3)Gal(b1-4)GlcNAc
# How it was run: as §1
# [3] = biological target: GlcNAc(b1-3)Gal(b1-4)GlcNAc(b1-2)Man(a1-3)[GlcNAc(b1-3)Gal(b1-4)GlcNAc(b1-2)Man(a1-6)]Man(b1-4)GlcNAc(b1-4)GlcNAc
# How it was run: as §1
# [4] = biological target: GlcNAc(b1-3)Gal(b1-4)GlcNAc(b1-2)Man(a1-3)[GlcNAc(b1-3)Gal(b1-4)GlcNAc(b1-2)Man(a1-6)]Man(b1-4)GlcNAc(b1-4)[Fuc(a1-6)]GlcNAc
# How it was run: as §1
# [5] = biological target: GlcNAc(b1-3)Gal(b1-4)GlcNAc(b1-2)[GlcNAc(b1-3)Gal(b1-4)GlcNAc(b1-6)]Man(a1-6)[GlcNAc(b1-3)Gal(b1-4)GlcNAc(b1-2)Man(a1-3)]Man(b1-4)GlcNAc(b1-4)GlcNAc
# How it was run: as §1
# [6] = biological target: GlcNAc(b1-3)Gal(b1-4)GlcNAc(b1-3)Gal(b1-4)GlcNAc
# How it was run: as §1
# [7] = biological target: GlcNAc(b1-3)Gal(b1-4)GlcNAc(b1-3)Gal(b1-4)GlcNAc(b1-2)Man(a1-3)[GlcNAc(b1-3)Gal(b1-4)GlcNAc(b1-3)Gal(b1-4)GlcNAc(b1-2)Man(a1-6)]Man(b1-4)GlcNAc(b1-4)GlcNAc
# How it was run: as §1
# [8] = biological target: GlcNAc(b1-3)Gal(b1-4)GlcNAc(b1-3)Gal(b1-4)GlcNAc(b1-2)Man(a1-3)[GlcNAc(b1-3)Gal(b1-4)GlcNAc(b1-3)Gal(b1-4)GlcNAc(b1-2)Man(a1-6)]Man(b1-4)GlcNAc(b1-4)[Fuc(a1-6)]GlcNAc
# How it was run: as §1
# [9] = biological target: GlcNAc(b1-3)Gal(b1-4)GlcNAc(b1-3)Gal(b1-4)GlcNAc(b1-2)[GlcNAc(b1-3)Gal(b1-4)GlcNAc(b1-3)Gal(b1-4)GlcNAc(b1-6)]Man(a1-6)[GlcNAc(b1-3)Gal(b1-4)GlcNAc(b1-3)Gal(b1-4)GlcNAc(b1-2)Man(a1-3)]Man(b1-4)GlcNAc(b1-4)[Fuc(a1-6)]GlcNAc
# How it was run: as §1
# [10] = biological target: GlcNAc(b1-3)Gal(b1-4)GlcNAc(b1-3)Gal(b1-4)GlcNAc(b1-3)Gal(b1-4)GlcNAc(b1-2)Man(a1-3)[GlcNAc(b1-3)Gal(b1-4)GlcNAc(b1-3)Gal(b1-4)GlcNAc(b1-3)Gal(b1-4)GlcNAc(b1-2)Man(a1-6)]Man(b1-4)GlcNAc(b1-4)GlcNAc
# How it was run: as §1
# [11] = biological target: GlcNAc(b1-3)Gal(b1-4)GlcNAc(b1-3)Gal(b1-4)GlcNAc(b1-3)Gal(b1-4)GlcNAc(b1-2)Man(a1-3)[GlcNAc(b1-3)Gal(b1-4)GlcNAc(b1-3)Gal(b1-4)GlcNAc(b1-3)Gal(b1-4)GlcNAc(b1-2)Man(a1-6)]Man(b1-4)GlcNAc(b1-4)[Fuc(a1-6)]GlcNAc
# How it was run: as §1
# [12] = biological target: GlcNAc(b1-3)Gal(b1-4)GlcNAc(b1-3)Gal(b1-4)GlcNAc(b1-3)Gal(b1-4)GlcNAc(b1-2)[GlcNAc(b1-3)Gal(b1-4)GlcNAc(b1-3)Gal(b1-4)GlcNAc(b1-3)Gal(b1-4)GlcNAc(b1-6)]Man(a1-6)[GlcNAc(b1-3)Gal(b1-4)GlcNAc(b1-3)Gal(b1-4)GlcNAc(b1-3)Gal(b1-4)GlcNAc(b1-2)Man(a1-3)]Man(b1-4)GlcNAc(b1-4)[Fuc(a1-6)]GlcNAc
# How it was run: as §1
# [13] = biological target: GlcNAc(b1-3)Gal(b1-4)GlcNAc(b1-3)Gal(b1-4)GlcNAc(b1-3)Gal(b1-4)GlcNAc(b1-3)Gal(b1-4)GlcNAc(b1-2)Man(a1-3)[GlcNAc(b1-3)Gal(b1-4)GlcNAc(b1-3)Gal(b1-4)GlcNAc(b1-3)Gal(b1-4)GlcNAc(b1-3)Gal(b1-4)GlcNAc(b1-2)Man(a1-6)]Man(b1-4)GlcNAc(b1-4)GlcNAc
# How it was run: as §1
# [14] = biological target: GlcNAc(b1-3)Gal(b1-4)GlcNAc(b1-3)Gal(b1-4)GlcNAc(b1-3)Gal(b1-4)GlcNAc(b1-3)Gal(b1-4)GlcNAc(b1-2)Man(a1-3)[GlcNAc(b1-3)Gal(b1-4)GlcNAc(b1-3)Gal(b1-4)GlcNAc(b1-3)Gal(b1-4)GlcNAc(b1-3)Gal(b1-4)GlcNAc(b1-2)Man(a1-6)]Man(b1-4)GlcNAc(b1-4)[Fuc(a1-6)]GlcNAc
# How it was run: as §1
# [15] = biological target: GlcNAc(b1-3)Gal(b1-4)GlcNAc(b1-3)Gal(b1-4)GlcNAc(b1-3)Gal(b1-4)GlcNAc(b1-3)Gal(b1-4)GlcNAc(b1-2)[GlcNAc(b1-3)Gal(b1-4)GlcNAc(b1-3)Gal(b1-4)GlcNAc(b1-3)Gal(b1-4)GlcNAc(b1-3)Gal(b1-4)GlcNAc(b1-6)]Man(a1-6)[GlcNAc(b1-3)Gal(b1-4)GlcNAc(b1-3)Gal(b1-4)GlcNAc(b1-3)Gal(b1-4)GlcNAc(b1-3)Gal(b1-4)GlcNAc(b1-2)Man(a1-3)]Man(b1-4)GlcNAc(b1-4)[Fuc(a1-6)]GlcNAc
# How it was run: as §1
# [16] = biological target: GlcNAc(b1-3)Gal(b1-4)GlcNAc(b1-3)Gal(b1-4)GlcNAc(b1-3)GalNAc
# How it was run: as §1
# [17] = biological target: GlcNAc(b1-3)Gal(b1-4)GlcNAc(b1-3)GalNAc
# How it was run: as §1
# [18] = biological target: GlcNAc(b1-3)Gal(b1-4)GlcNAc(b1-3)[GlcNAc(b1-3)Gal(b1-4)GlcNAc(b1-3)]GalNAc
# How it was run: as §1
# [19] = biological target: GlcNAc(b1-3)Gal(b1-4)GlcNAc(b1-6)[Gal(b1-3)]GalNAc
# How it was run: as §1
# [20] = biological target: GlcNAc(b1-3)Gal(b1-4)GlcNAc(b1-6)[GlcNAc(b1-3)Gal(b1-3)]GalNAc
# How it was run: as §1
# [21] = biological target: GlcNAc(b1-3)Gal(b1-4)GlcNAc(b1-6)[GlcNAc(b1-3)]Gal(b1-4)GlcNAc
# How it was run: as §1
# GlcNAc(b1-3)GalNAc = biological target: GlcNAc(b1-3)GalNAc
# How it was run: as §1
# GlcNAc(b1-3)Man = biological target: GlcNAc(b1-3)Man
# How it was run: as §1
# [22] = biological target: GlcNAc(b1-3)[GlcNAc(b1-4)][GlcNAc(b1-6)]GlcNAc
# How it was run: as §1
# [23] = biological target: GlcNAc(b1-3)[GlcNAc(b1-6)]Gal(b1-4)GlcNAc
# How it was run: as §1
# [24] = biological target: GlcNAc(b1-3)[GlcNAc(b1-6)]GalNAc
# How it was run: as §1
# [25] = biological target: GlcNAc(b1-4)Gal(b1-4)GlcNAc
# How it was run: as §1
# GlcNAc(b1-4)GlcNAc = biological target: GlcNAc(b1-4)GlcNAc
# How it was run: as §1
# [26] = biological target: GlcNAc(b1-4)GlcNAc(b1-4)GlcNAc
# How it was run: as §1
# [27] = biological target: GlcNAc(b1-4)GlcNAc(b1-4)GlcNAc(b1-4)GlcNAc(b1-4)GlcNAc
# How it was run: as §1
# [28] = biological target: GlcNAc(b1-4)GlcNAc(b1-4)GlcNAc(b1-4)GlcNAc(b1-4)GlcNAc(b1-4)GlcNAc
# How it was run: as §1
# [29] = biological target: GlcNAc(b1-4)[GlcNAc(b1-6)]GalNAc
# How it was run: as §1
# [30] = biological target: GlcNAc(b1-6)Gal(b1-4)GlcNAc
# How it was run: as §1
# GlcNAc(b1-6)GalNAc = biological target: GlcNAc(b1-6)GalNAc
# How it was run: as §1
# GlcNAc3Prop(b1-4)GlcNAc = biological target: GlcNAc3Prop(b1-4)GlcNAc
# How it was run: as §1
# [31] = biological target: GlcNAc6S(b1-3)Gal(b1-4)GlcNAc
# How it was run: as §1
# Kdn(a2-3)Gal(b1-3)GalNAc = biological target: Kdn(a2-3)Gal(b1-3)GalNAc
# How it was run: as §1
# Kdn(a2-3)Gal(b1-3)GlcNAc = biological target: Kdn(a2-3)Gal(b1-3)GlcNAc
# How it was run: as §1
# Kdn(a2-3)Gal(b1-4)Glc = biological target: Kdn(a2-3)Gal(b1-4)Glc
# How it was run: as §1
# Kdn(a2-3)Gal(b1-4)GlcNAc = biological target: Kdn(a2-3)Gal(b1-4)GlcNAc
# How it was run: as §1
# [32] = biological target: Kdn(a2-3)Gal(b1-4)[Fuc(a1-3)]GlcNAc
# How it was run: as §1
# Kdn(a2-6)Gal(b1-4)GlcNAc = biological target: Kdn(a2-6)Gal(b1-4)GlcNAc
# How it was run: as §1
binder,measurement,setting,value
B1,glycan array binding signal (z-score),GlcNAc(b1-3)Fuc,-0.43
same,glycan array binding signal (z-score),GlcNAc(b1-3)Gal,-0.409
same,glycan array binding signal (z-score),[1],-0.222
same,glycan array binding signal (z-score),GlcNAc(b1-3)Gal(b1-4)Glc,-0.371
same,glycan array binding signal (z-score),[2],-0.328
same,glycan array binding signal (z-score),[3],-0.255
same,glycan array binding signal (z-score),[4],-0.095
same,glycan array binding signal (z-score),[5],-0.17
same,glycan array binding signal (z-score),[6],-0.141
same,glycan array binding signal (z-score),[7],0.724
same,glycan array binding signal (z-score),[8],-0.19
same,glycan array binding signal (z-score),[9],0.07
same,glycan array binding signal (z-score),[10],-0.18
same,glycan array binding signal (z-score),[11],0.071
same,glycan array binding signal (z-score),[12],0.254
same,glycan array binding signal (z-score),[13],-0.029
same,glycan array binding signal (z-score),[14],0.018
same,glycan array binding signal (z-score),[15],0.02
same,glycan array binding signal (z-score),[16],-0.371
same,glycan array binding signal (z-score),[17],-0.347
same,glycan array binding signal (z-score),[18],-0.25
same,glycan array binding signal (z-score),[19],-0.316
same,glycan array binding signal (z-score),[20],-0.396
same,glycan array binding signal (z-score),[21],-0.475
same,glycan array binding signal (z-score),GlcNAc(b1-3)GalNAc,-0.094
same,glycan array binding signal (z-score),GlcNAc(b1-3)Man,-0.409
same,glycan array binding signal (z-score),[22],-0.09
same,glycan array binding signal (z-score),[23],-0.39
same,glycan array binding signal (z-score),[24],-0.292
same,glycan array binding signal (z-score),[25],-0.368
same,glycan array binding signal (z-score),GlcNAc(b1-4)GlcNAc,-0.41
same,glycan array binding signal (z-score),[26],-0.316
same,glycan array binding signal (z-score),[27],-0.359
same,glycan array binding signal (z-score),[28],-0.336
same,glycan array binding signal (z-score),[29],-0.141
same,glycan array binding signal (z-score),[30],-0.455
same,glycan array binding signal (z-score),GlcNAc(b1-6)GalNAc,-0.368
same,glycan array binding signal (z-score),GlcNAc3Prop(b1-4)GlcNAc,0.556
same,glycan array binding signal (z-score),[31],-0.235
same,glycan array binding signal (z-score),Kdn(a2-3)Gal(b1-3)GalNAc,-0.129
same,glycan array binding signal (z-score),Kdn(a2-3)Gal(b1-3)GlcNAc,-0.084
same,glycan array binding signal (z-score),Kdn(a2-3)Gal(b1-4)Glc,-0.251
same,glycan array binding signal (z-score),Kdn(a2-3)Gal(b1-4)GlcNAc,-0.026
same,glycan array binding signal (z-score),[32],-0.15
same,glycan array binding signal (z-score),Kdn(a2-6)Gal(b1-4)GlcNAc,-0.407

# — the supplement of paper PMC8728848
